# According to PubChem BioAssay AID588342 (National Center for Advancing Translational Sciences (NCATS), 2011):
# In all, about 360,000 compounds went through this assay and about 25,000 (6.9%) were called active. Inconclusive means that the source gave no clear call. Such entries were picked first, then a sample of the others. Calls follow the shape of the dose curve; as a rule, active = well fitted inhibition curve with a large enough effect; inconclusive = small, poorly fitted or top-dose-only effect; inactive = flat fitted curve, though single readings scatter. Potencies of inconclusive entries are doubtful fits and often do not repeat.
# Target: Luciferin 4-monooxygenase (Photinus pyralis) (UniProt P08659)
# Sequence of UniProt P08659 (P08659 whole entry, looked up): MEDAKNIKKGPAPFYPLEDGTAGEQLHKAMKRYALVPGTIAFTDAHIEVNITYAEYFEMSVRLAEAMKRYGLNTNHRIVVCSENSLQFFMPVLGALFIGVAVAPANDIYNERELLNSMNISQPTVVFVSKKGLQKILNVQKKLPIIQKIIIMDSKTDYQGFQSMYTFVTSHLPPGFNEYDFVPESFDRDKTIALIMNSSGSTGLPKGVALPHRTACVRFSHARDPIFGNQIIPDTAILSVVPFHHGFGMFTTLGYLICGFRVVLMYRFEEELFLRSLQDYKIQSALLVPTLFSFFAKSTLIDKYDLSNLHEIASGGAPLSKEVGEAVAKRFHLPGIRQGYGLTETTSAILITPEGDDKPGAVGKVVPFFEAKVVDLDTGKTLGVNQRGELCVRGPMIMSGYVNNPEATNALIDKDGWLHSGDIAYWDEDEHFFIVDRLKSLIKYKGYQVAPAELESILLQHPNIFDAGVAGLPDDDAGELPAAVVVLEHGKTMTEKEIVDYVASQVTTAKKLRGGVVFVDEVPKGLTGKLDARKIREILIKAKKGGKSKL
# Assay: qHTS profiling assay for firefly luciferase inhibitor/activator using purifed enzyme and Km concentrations of substrates (counterscreen for miR-21 project); also: nearly all actives have a fitted effect of over 55% in size;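 as to activity change, negative = inhibition: plate controls were vehicle for no effect and reference inhibitor for full effect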
# Conditions: purified FLuc, luminescence inhibition; series mostly up to 57.5 µM; activity change, negative = inhibition: at the top concentration
# Summary of the method: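 Purified P. pyralis luciferase (10nM final) with 10uM D-luciferin and 10uM ATP (Km levels) in 50mM Tris acetate pH 7.5, 10mM Mg acetate, 0.01% Tween-20, 0.05% BSA; qHTS 6-point titration, ~60 µM downward; luminescence read.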
# Potency is read from the fitted curve at half-maximal effect; tags tell the direction and shape of the fitted curve.
Compound,Potency,"activity change, negative = inhibition"
Cc1cccc(NC(=S)N/N=C/c2ccc3c(c2)OCO3)c1,"inconclusive: 23.9 µM [inhibitor, partial curve, poor fit]",
Cc1cccc(N2CCN(C(=O)Cn3ncc4c3-c3ccccc3OC4)CC2)c1C,,inactive: -11.1%
CCOc1ccc(Nc2ncnc3c2nc2n3CCCCC2)cc1,,inactive: -18.1%
O=C(Nc1nccs1)c1ccc(NC(=O)c2ccco2)cc1,active: 16.9 µM,
Cc1ccc(S(=O)(=O)Nc2cccc(-n3cnnn3)c2)cc1,,inactive: 0.283%
O=C(CC1CC2CCC1C2)NC1CCCCCCC1 (stereo not drawn),"inconclusive: 23.9 µM [inhibitor, partial curve]",
O=C(c1cc2ccccc2o1)c1cccs1,active: 10.7 µM,
Cc1ccccc1CN1C[C@@H]2C[C@@H](c3cnc(N4CCOCC4)s3)N3CCC[C@@]23C1=O,,inactive: -2.86%
Cc1ccc(N2C(=O)C3C4C=CC(CC4)C3C2=O)c([N+](=O)[O-])c1 (stereo not drawn),"inconclusive: 37.9 µM [inhibitor, single point]",
COc1ccc(CNc2nccs2)cc1,"inconclusive: 23.9 µM [inhibitor, single point]",
CC(=O)c1cccc(-n2c(=O)c3c4c(sc3n(CC(=O)c3ccc(Cl)cc3)c2=O)CN(C(C)=O)CC4)c1,,inactive: 0.185%
CC1CCCCN1C(=O)CSc1n[nH]c(-c2ccccc2)n1 (stereo not drawn),"inconclusive: 37.9 µM [inhibitor, partial curve, poor fit]",
OC1CCN(Cc2ccc(OCc3ccccc3)cc2)CC1,active: 10.7 µM,
CCc1ccc(OCC(=O)NCc2ccco2)c(Br)c1,active: 9.53 µM,
O=C(Nc1ccc(N2CCOCC2)cc1)c1cnsn1,active: 0.953 µM,
Cc1ccc(NC(=O)C(=O)NCc2ccccn2)cc1,"inconclusive: 37.9 µM [inhibitor, single point]",
O=[N+]([O-])c1ccc(N2CCN(Cc3ccc(Br)o3)CC2)cc1,,inactive: 1.09%
Cc1cccc(C(=O)N(Cc2ccco2)Cc2ccccc2F)c1,,inactive: -17.5%
COc1cc2c(=O)c(-c3ccc(O)cc3)coc2cc1OC1OC(CO)C(O)C(O)C1O (stereo not drawn),"inconclusive: 15.1 µM [inhibitor, partial curve]",
C/C(=N\NC(=O)c1ccoc1C)c1cccnc1,"inconclusive: 23.9 µM [inhibitor, partial curve, poor fit]",
CNc1ccc(/C=C(\C#N)C(=O)Nc2ccccn2)cc1[N+](=O)[O-],,inactive: 0.104%
CCOC(=O)C1(Cc2cccc(OC)c2)CCCN(C(=O)c2cc(CC(C)C)[nH]n2)C1 (stereo not drawn),active: 21.3 µM,
COc1ccc(-c2cccc(NC(=O)COc3ccc(Cl)cc3)c2)nn1,active: 21.3 µM,
CCc1nc(SCC(=O)c2ccc(Cl)s2)c2oc3ccccc3c2n1,"inconclusive: 30.1 µM [inhibitor, partial curve, poor fit]",
Cc1ccc(OCCOCCN2CCCCC2)c([N+](=O)[O-])c1,"inconclusive: 0.012 µM [inhibitor, partial curve, poor fit]",

Compound,Potency,"activity change, negative = inhibition"
CCCCOc1ccc(-c2[nH]ncc2C=O)cc1,"inconclusive: 37.9 µM [inhibitor, single point]",
COc1ccc2nc(SCC(=O)Nc3ccc4[nH]c(=O)[nH]c4c3)[nH]c2c1,active: 15.1 µM,
N/C(=N\OC(=O)CCc1ccccc1)c1ccc(Br)cc1,"inconclusive: 23.9 µM [inhibitor, partial curve, poor fit]",
COc1ccccc1OCC(=O)Nc1nc2c(s1)CC(C)CC2 (stereo not drawn),"inconclusive: 26.9 µM [inhibitor, partial curve, poor fit]",
Cc1cc2oc(=O)c(CC(=O)NCCCO)c(C)c2c2occ(C(C)(C)C)c12,active: 10.7 µM,
COc1ccc(C(c2sc3nc(C)nn3c2O)N2CCc3ccccc3C2)cc1 (stereo not drawn),"inconclusive: 23.9 µM [inhibitor, partial curve, poor fit]",
CC(C)(C)c1ccc(OCCNC(=O)c2ncn[nH]2)cc1,"inconclusive: 26.9 µM [inhibitor, partial curve, poor fit]",
N/C(=N\OC(=O)C1CCCCC1)c1ccc(Br)cc1,active: 9.53 µM,
CCN(CC)CCn1c2ccccc2c2nc3ccc([N+](=O)[O-])cc3cc21,"inconclusive: 12 µM [inhibitor, partial curve]",
Cc1ccc(-c2cc(C(=O)O)n[nH]2)o1,"inconclusive: 23.9 µM [inhibitor, partial curve, poor fit]",
Cc1ccc(OCc2nc(-c3cccs3)no2)c([N+](=O)[O-])c1,active: 0.757 µM,
Cc1c(NC(=O)c2ccc(N3CCCC3)c([N+](=O)[O-])c2)cccc1-c1nc2ccccc2s1,active: 2.69 µM,
Cc1c(C(=O)NCC2CCCO2)oc2ccc(Br)cc12 (stereo not drawn),"inconclusive: 13.5 µM [inhibitor, partial curve, poor fit]",
Clc1cccc(C2Nc3cccc4cccc(c34)N2)c1,"inconclusive: 30.1 µM [inhibitor, partial curve, poor fit]",
COCCn1c(C)cc(C(=O)CSc2nnc(C)s2)c1C,active: 1.69 µM,
COC(=O)N/N=C(\C)c1ccccc1Br,,inactive: -2.88%
O=c1[nH]c(Cc2ccccn2)nc2scc(-c3ccccc3Cl)c12,,inactive: -6.74%
Cc1cc(C(F)(F)F)n2nc(-c3cccs3)cc2n1,"inconclusive: 15.1 µM [inhibitor, partial curve]",
O=C(COc1ccccc1-c1nnc(-c2ccccc2)o1)Nc1ccc(Br)cc1F,active: 4.78 µM,
CC(=O)c1ccc(NS(=O)(=O)c2cc(-c3cc(C)no3)ccc2C)cc1,"inconclusive: 30.1 µM [inhibitor, partial curve, poor fit]",
CCC1c2ccc(C)n2CCN1C(=O)Nc1ccccc1OC (stereo not drawn),"inconclusive: 21.3 µM [inhibitor, partial curve, poor fit]",
CC(C)OC(=O)CSc1nc(Cc2cccs2)nc2ccccc12,,inactive: -1.77%
CC(C)c1ccc(-c2nnc3n(CCc4ccccc4)c(=O)c4ccccc4n23)cc1,,inactive: 0.664%
CSc1nc(-c2ccc(F)cc2)cc(=O)[nH]1,"inconclusive: 30.1 µM [inhibitor, partial curve, poor fit]",
CN(CCOc1ccccc1)C(=O)CNC(=O)c1ccc(C(C)(C)C)cc1,"inconclusive: 23.9 µM [inhibitor, partial curve]",

Compound,Potency,"activity change, negative = inhibition"
Cc1ccccc1NC(=O)Cn1nnc(-c2ccc(N3CCOCC3)cc2)n1,"inconclusive: 1.07 µM [inhibitor, partial curve, poor fit]",
COc1cccc2cc(CC(=O)c3ccc(C)cc3C)c(=O)oc12,active: 10.7 µM,
CC(C)CN1C(=O)/C(=C/c2cccs2)NC1=S,"inconclusive: 23.9 µM [inhibitor, single point]",
Cc1ccc(-c2nnc(SCC(=O)N/N=C/c3ccccc3C(=O)O)n2-c2ccccc2)cc1,"inconclusive: 30.1 µM [inhibitor, single point]",
Nc1nc(Nc2ccc(Cl)cc2)nc(NCc2ccco2)c1[N+](=O)[O-],"inconclusive: 26.9 µM [inhibitor, single point]",
COc1ccc(OCC(=O)Nc2ccccc2OC(F)F)cc1,"inconclusive: 23.9 µM [inhibitor, partial curve, poor fit]",
Fc1ccc(-c2n[nH]c(=S)n2-c2ccc3c(c2)OCCO3)cc1,"inconclusive: 30.1 µM [inhibitor, partial curve, poor fit]",
Cc1ccccc1-c1nnc(SCC(=O)N2CCCC2)o1,active: 16.9 µM,
CCC(C)c1ccccc1N1CC(C(=O)N(C)CC(=O)Nc2cccc(F)c2)CC1=O (stereo not drawn),,inactive: 1.56%
Cc1ccccc1OCC(=O)Nc1nc2ccccc2[nH]1,active: 3.38 µM,
O=C(c1ccco1)N1CCN(c2ncnc3c2[nH]c2ccc(Br)cc23)CC1,"inconclusive: 37.9 µM [inhibitor, single point]",
O=[N+]([O-])c1cc(/C=N/N2CCCCC2)ccc1Cl,"inconclusive: 30.1 µM [inhibitor, single point]",
CCn1nc(C)cc1C(=O)Sc1ccc(Cl)cc1Cl,"inconclusive: 26.9 µM [inhibitor, single point]",
Cc1ccc(N2C(=O)N(CC(=O)NCc3ccccc3Cl)C(=O)C2C)cc1 (stereo not drawn),"inconclusive: 26.9 µM [inhibitor, partial curve, poor fit]",
NC(=O)c1cc2ccccc2o/c1=N/NC(=O)c1cccc(F)c1,,inactive: -6.69%
CCOc1ccccc1N(C(=O)Nc1ccc(Cl)cc1)C1=NCCS1,"inconclusive: 37.9 µM [inhibitor, single point]",
CC(=O)c1c(C)[nH]c(C(=O)Nc2nc(-c3ccc(-c4ccccc4)cc3)cs2)c1C,"inconclusive: 33.8 µM [inhibitor, single point]",
O=C(Nc1ccc(F)cc1Cl)n1ncc2cc(Cl)ccc21,"inconclusive: 26.9 µM [inhibitor, partial curve, poor fit]",
COC(=O)c1cccc2c1-c1ccccc1/C2=N\NC(N)=O,"inconclusive: 26.9 µM [inhibitor, single point]",
CCOc1ccc(C(=O)NCc2ccc3c(c2)CCN3C(=O)c2ccccc2)cc1,"inconclusive: 21.3 µM [inhibitor, partial curve, poor fit]",
C/C(=N\NC(=O)c1nnn(-c2nonc2N)c1-c1ccccc1)c1ccco1,,inactive: -0.692%
CCOc1ccc(C(=O)/C=C/c2ccc(SC)cc2)cc1,active: 5.36 µM,
CCc1ccc(CNC(=O)c2ccc3c(c2)nc2n3CCC(C)C2)cc1 (stereo not drawn),"inconclusive: 26.9 µM [inhibitor, partial curve]",
